Values after ≈ are worked out from the molar mass of the structure shown.
Tests used:
[1] = tested on: Herpes simplex type 1 HSV-1 strain(BW10168)TK-; test: microbe, parasite or virus in culture; details: Human alphaherpesvirus 1, Vero, read-out: ID50 (minimum drug concentration that inhibited the CPE by 50%)
[2] = tested on: Herpes simplex type 2 HSV-2 strain(BW9787)TK-; test: microbe, parasite or virus in culture; details: Human alphaherpesvirus 2, Vero, read-out: ID50 (minimum drug concentration that inhibited the CPE by 50%)
[3] = tested on: Herpes simplex type 1 HSV-1 strain(BW10168)TK-; details: HSV-1 (BW10168) TK-, Vero
[4] = tested on: Herpes simplex type 2 HSV-2 strain(BW9787)TK-; details: HSV-2 (BW9787) TK-, Vero

## Nc1nc2c(ncn2C2CC(CO)C2CO)c(=O)[nH]1 (stereo not drawn) [Example 1I, 9-(2',3'-Bis(hydroxymethyl)cyclobutyl)guanine]
[1]
  EC50: 4.06 µg/mL (≈ 15.3 µM)
[2]
  EC50: 0.79 µg/mL (≈ 2.98 µM)
[3]
  TI (Therapeutic Index, MTC/ID50): 24.6
  VR (Virus Rating): 3.3
[4]
  TI (Therapeutic Index, MTC/ID50): 127
  VR (Virus Rating): 5.4
